In general, % Inhibition refers to the change of the read-out against control, counted positive when it falls.

Molecules are shown by their SMILES. In all, about 150,000 compounds went through this assay and about 540 (0.36%) showed an effect of 50% or more. The list shows a part of the results.

This assay concerns Plasmodium falciparum. The experiment in a line: Primary screen in NF54 nanoGlo assay, in single point, at 2uM, 72h; a lower Z score goes with more inhibition. Type of assay: functional, Erythrocyte. The conditions noted are these: timepoint 72 hour.
Regarding `O=C(NCCc1cccnc1)c1ccc2ccccc2n1`, the “% Inhibition” value was -8% and the Z score turned out to be 1.41.
In the same order, the values of `Cc1ccc(NC(=O)Cn2nc3n(c2=O)CCCC3)cc1` are -9% and 1.2.
In the same order, the values of `O=C(c1cnc(Nc2ccc(Cl)cc2)c(Cl)c1)N1C[C@H](O)C[C@H]1CO` are 0% and -0.05.
Take `O=C(c1ccccn1)N1CCCn2nnnc21`: the “% Inhibition” value is reported as -20% and the Z score was 2.43.
The matching figures for `O=C(CCC(=O)N1CCC(O)CC1)NCCC1=CCCCCC1`: -1% and 0.23.
Regarding `CNc1ncccc1C(=O)N1CC[C@]2(OC)CC[C@H](OC)C[C@H]12`, the “% Inhibition” value stood at 1% and the Z score is -0.1.
For `CN(C)CCN1C(=O)CC[C@@H]1CCNC(=O)c1c[nH]c2c(F)cccc2c1=O`, the “% Inhibition” value was found to be 15% and the Z score was -2.07.
As for `CC(C)C(=O)NS(=O)(=O)c1cccc2c1N=S=N2`, the “% Inhibition” value is given as 32% and the Z score is -3.66.
Turning to `Cc1nnc2c(=O)n(CC(=O)N3CCCCC3)c3cccnc3n12`, the “% Inhibition” value is on record as -16% and the Z score worked out at 2.07.
In the case of `CN1N=C(C(=O)NC(C)(C)CC(C)(C)C)CCC1=O`, the “% Inhibition” value amounted to 6% and the Z score is on record as -0.51.
Take `C#CC(CC)(CC)NS(=O)(=O)c1ccc(F)cc1`: the “% Inhibition” value was -6% and the Z score worked out at 1.1.
As for `Cc1cscc1C(=O)N1CCN([C@H](C#N)c2ccccc2)CC1`, the “% Inhibition” value is -1% and the Z score was found to be 0.09.
As to `COc1cc(OC)cc(N(C)Cc2nc(N(C)C)no2)c1`, the “% Inhibition” value is given as -7% and the Z score was 0.98.
In the case of `Cc1ccc(NC(=O)NCCN2CCO[C@@H](C)C2)c(N(C)C)n1`, the “% Inhibition” value was found to be 10% and the Z score was -1.76.
The matching figures for `COc1cc(-c2noc(CC(C)(C)C)n2)ccc1OCc1ccc(F)c(F)c1`: -5% and 1.01.
As for `O=C(CN1CCC[C@H]1C1CCCC1)NCC1CCCCC1`, the “% Inhibition” value was determined as 43% and the Z score is given as -3.96.
`Cc1ccc(N2CCN(c3nc4c(c(N(C)C)n3)CN(C(=O)c3ccc(F)cc3)CC4)CC2)cc1`: the “% Inhibition” value is -8% and the Z score turned out to be 1.6.
In the case of `COC(=O)C1C2CCCC2CN1Cc1nnc(C)o1` (stereo unspecified), the “% Inhibition” value came to 3% and the Z score is listed as -0.4.
In the same order, the values of `CN(Cc1ccc(Br)cc1)Cn1nc([C@H]2CCS(=O)(=O)C2)oc1=S` are -11% and 2.16.
On to `COc1ccccc1CNc1ncnc2sc(C(=O)N3CCCC[C@@H]3C)c(C)c12`, for which the “% Inhibition” value is recorded as -3% and the Z score is on record as 0.5.
For `O=C(Nc1ccc(F)c(Cl)c1)C1=CCN(Cc2ccccc2F)CC1`, the “% Inhibition” value stood at 1% and the Z score is recorded as -0.1.
On to `CCc1cnc(CNC(=O)Nc2ccnc(C3(C)CC3)n2)o1`, for which the “% Inhibition” value was -5% and the Z score is 1.01.
For `OC[C@@H]1CCN(c2cc(-c3ccccc3)nc3ccccc23)C[C@@H]1O`, the “% Inhibition” value was -10% and the Z score is 2.07.
Turning to `O=C(c1[nH]nc2c1CCC2)N1CCN(c2ccc(F)cc2)CC1`, the “% Inhibition” value is on record as -5% and the Z score came to 0.84.
For the compound `Cc1cc(NC(=O)c2cc(C3CC3)on2)no1`, the “% Inhibition” value is listed as 0% and the Z score amounted to 0.05.
As for `Nc1nc2cc(C(=O)N3CCN(c4cnccn4)CC3)ccc2s1`, the “% Inhibition” value is given as -1% and the Z score came to 0.1.
For the compound `CN(Cc1cc(Br)ccc1Cl)C(=O)CO`, the “% Inhibition” value was -2% and the Z score turned out to be 0.25.
Take `CCOC(=O)c1cccc(NC(=O)CCc2[nH]c(C)c(C(=O)OCC)c2C)c1`: the “% Inhibition” value was 0% and the Z score worked out at 0.
The matching figures for `CCc1ccc([C@@H]2CCCCCN2C(=O)CCc2ccncc2)o1`: 3% and -0.34.
`COc1ccc(C2(CC(=O)N(C)C(C)c3nc(C)cs3)CC(=O)N(C)C2=O)cc1` (stereo unspecified): the “% Inhibition” value came to 9% and the Z score is -1.15.
Consider `Cc1cc(O[C@H]2CCN(S(=O)(=O)c3ccc(F)c(Cl)c3)C2)nc(C)n1`, for which the “% Inhibition” value is reported as 8% and the Z score was -1.31.
`Cc1cc(CN2CC(C(N)=O)O[C@H](C)C2)c(OC(F)F)cc1C` (stereo partly specified): the “% Inhibition” value is on record as -12% and the Z score was found to be 1.51.
In the same order, the values of `CCOC(=O)[C@@H](NC(=O)Nc1ccccc1C(F)(F)F)C(F)(F)F` are 40% and -5.22.
Take `O=C(c1noc2c1COCC2)N1CCCc2c(Br)c(F)cc(F)c21`: the “% Inhibition” value was -4% and the Z score is 0.54.
Turning to `COC(C(=O)N1CC(C)(C)OC2(CCOC2)C1)c1cnn(C)c1` (stereo unspecified), the “% Inhibition” value was 0% and the Z score is -0.03.
With `Cc1cc(F)cc(CN2CCC3(CCC(=O)N(Cc4cccnc4)C3)CC2)c1`, the “% Inhibition” value is on record as -11% and the Z score is 2.19.
Regarding `Cc1c(-c2c(-c3ccccc3)ncn2Cc2ccno2)[nH]c2ccccc12`, the “% Inhibition” value is reported as -6% and the Z score was 0.89.
With `O=C(Nc1ccccc1)N1CC(n2cnnc2[C@@H]2CCCO2)C1`, the “% Inhibition” value is -1% and the Z score was 0.13.
Turning to `CC(C)OCC(=O)N[C@H]1CN(c2ccc(C#N)cn2)C[C@@H]1C1CC1`, the “% Inhibition” value was found to be 3% and the Z score is given as -0.47.
In the case of `C[C@H](Nc1cc(CCN)ncn1)c1cc(F)cc(F)c1`, the “% Inhibition” value is -11% and the Z score is 1.1.
As to `COc1cccc2c1CCC2NC(c1ncc(C)s1)C1CC1` (stereo unspecified), the “% Inhibition” value is -9% and the Z score worked out at 0.84.
`CC(C)CN1CCN([C@H]2CCOC3(CCN(C(=O)Cc4cccnc4)CC3)C2)CC1`: the “% Inhibition” value is listed as -16% and the Z score amounted to 3.11.
For `O=C([C@@H]1CC[C@H](NS(=O)(=O)N2CCc3ccccc3C2)C1)N1CCOCC1`, the “% Inhibition” value is -5% and the Z score stood at 0.9.

The record behind these values is ChEMBL document CHEMBL4888484, “Replenishing the malaria drug discovery pipeline: Screening and hit evaluation of the MMV Hit Generation Library 1 (HGL1) against asexual blood stage Plasmodium falciparum ,using a nano luciferase reporter read-out” (2022).
